Assay results from PubChem BioAssay (NCI).
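Results reflect a 48-hour exposure of cells in 96-well plates to compound at five concentrations. Definition used: TGI = concentration required for complete inhibition of growth.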 For part of its entries the source gives two or more results. They are shown here; other results are not. The source may hold further records. Records of one sample usually come from different ranges of test concentrations, not given here; some values may only mark the edge of a range.

Tests used:
Experiment in all cases: NCI anticancer screen, dose series, 48 h
[1] = system: HCT-116 colon
[2] = system: MDA-N
[3] = system: SN12C renal
[4] = system: U251 CNS
[5] = system: HT29 colon
[6] = system: 786-0 renal
[7] = system: SK-OV-3 ovarian
[8] = system: T-47D breast
[9] = system: NCI-H226 lung
[10] = system: EKVX NSCLC
[11] = system: SNB-75 CNS
[12] = system: DMS 114 small cell lung
[13] = system: HCT-15 colon
[14] = system: OVCAR-8 ovarian
[15] = system: DMS 273 small cell lung
[16] = system: RXF-631 renal
[17] = system: KM20L2 colon
[18] = system: K-562 leukemia
[19] = system: MOLT-4 leukemia

Question: What does the source list for CC[C@@]1(O)C(=O)OCc2c1cc1n(c2=O)Cc2c-1nc1ccc(O)cc1c2CC[Si](C)(C)C?
Answer: TGI [1]: 47.2 nM and > 100 µM; TGI [2]: 1.51 µM and > 100 µM; TGI [3]: 1.36 nM and > 100 µM; TGI [4]: 151 nM and 11.4 nM; TGI [5]: 210 nM and > 100 µM; TGI [6]: 5.18 nM and 1.13 µM; TGI [7]: 46.7 nM and 787 nM; TGI [8]: < 1 nM and > 100 µM; TGI [9]: < 1 nM and 1.04 µM; TGI [10]: 651 nM and 7.09 µM; TGI [11]: 8.95 nM and 21 µM

Question: CN(C)C(=O)/N=c1\ss/c(=N\C(=S)N(C)C)n1-c1ccccc1 was tested. Which TGI [12] did it give?
Answer: 203 nM and > 79.3 µM

Question: Which TGI [1] does the source give for COc1cc2ccc3c4c(OC)cc(OC)c(OC)c4c(=O)n(C)c3c2cc1OC here?
Answer: 2.34 µM and > 35.8 µM

Question: What about the TGI [13] of the same compound?
Answer: 3.88 µM and > 39.8 µM

Question: And the TGI [3]?
Answer: 1.96 µM and > 33 µM

Question: What about the TGI [14] of the same compound?
Answer: 3.97 µM and > 100 µM

Question: And the TGI [15]?
Answer: 1.42 µM and > 100 µM

Question: And the TGI [16]?
Answer: 2.26 µM and > 100 µM

Question: What about the TGI [6] of the same compound?
Answer: 3.75 µM and > 100 µM

Question: What about the TGI [17] of the same compound?
Answer: 1.09 µM and > 34.9 µM

Question: And the TGI [18]?
Answer: 3.27 µM and > 100 µM

Question: Which results are given for CC(=O)O[C@H]1C(=O)O[C@@H]2C[C@H]3C(C)=CC(=O)[C@@H](O)[C@]3(C)[C@H]3[C@@]4(O)OC[C@]32[C@@H]1[C@@H](C)[C@H]4O?
Answer: TGI [1]: 29.1 nM and 316 nM; TGI [3]: 156 nM and 2.04 µM; TGI [19]: > 100 µM and 66.9 nM
